From paper PMC4336329 (PLoS ONE, 2015)
Out of some 310,000 compounds screened, about 2,200 (0.71%) showed an effect of 50% or more. Effects have a minus sign here. The list shows a part of the results.

Target: human ether-à-go-go-related gene (hERG) potassium channel (human, UniProt Q12809)
Test: primary screen, population patch clamp on CHO cells stably expressing hERG

Chain of human ether-à-go-go-related gene (hERG) potassium channel (Q12809 whole entry, looked up): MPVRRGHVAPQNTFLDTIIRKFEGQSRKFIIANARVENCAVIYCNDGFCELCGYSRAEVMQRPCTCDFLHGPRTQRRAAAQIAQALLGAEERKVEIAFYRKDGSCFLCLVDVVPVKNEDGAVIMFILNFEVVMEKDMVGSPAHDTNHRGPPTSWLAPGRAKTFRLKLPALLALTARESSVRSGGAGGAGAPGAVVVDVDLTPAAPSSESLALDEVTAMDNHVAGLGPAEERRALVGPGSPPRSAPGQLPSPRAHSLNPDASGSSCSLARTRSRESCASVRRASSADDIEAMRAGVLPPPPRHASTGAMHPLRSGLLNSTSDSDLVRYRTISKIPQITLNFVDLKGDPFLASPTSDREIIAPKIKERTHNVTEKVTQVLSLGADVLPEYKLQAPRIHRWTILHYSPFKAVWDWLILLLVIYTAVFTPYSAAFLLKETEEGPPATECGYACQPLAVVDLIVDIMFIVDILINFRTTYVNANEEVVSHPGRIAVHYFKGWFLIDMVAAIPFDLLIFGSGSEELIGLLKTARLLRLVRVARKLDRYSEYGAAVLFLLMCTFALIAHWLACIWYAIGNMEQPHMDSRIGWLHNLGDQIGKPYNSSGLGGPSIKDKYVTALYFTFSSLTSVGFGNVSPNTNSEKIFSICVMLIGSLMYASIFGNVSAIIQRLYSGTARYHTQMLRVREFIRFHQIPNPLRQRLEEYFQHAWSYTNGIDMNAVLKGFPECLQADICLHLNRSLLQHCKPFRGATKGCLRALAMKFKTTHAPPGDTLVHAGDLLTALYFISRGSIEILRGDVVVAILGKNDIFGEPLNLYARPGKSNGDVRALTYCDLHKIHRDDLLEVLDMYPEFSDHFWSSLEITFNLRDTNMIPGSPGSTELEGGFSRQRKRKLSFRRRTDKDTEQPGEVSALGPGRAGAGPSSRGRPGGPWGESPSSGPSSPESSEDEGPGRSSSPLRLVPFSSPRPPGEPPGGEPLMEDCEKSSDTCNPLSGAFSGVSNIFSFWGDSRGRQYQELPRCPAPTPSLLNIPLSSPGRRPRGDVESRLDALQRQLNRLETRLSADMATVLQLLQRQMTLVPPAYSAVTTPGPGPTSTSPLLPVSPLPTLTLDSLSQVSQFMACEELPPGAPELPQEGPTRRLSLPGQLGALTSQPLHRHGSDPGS

Structure (SMILES) | hERG current change (%, negative = inhibition) at 1uM [%]
Cc1ccc(Cn2cc(C=O)c3ccccc32)cc1 | 9.93
C/C(=N\NC(=O)c1cc(C(C)C)[nH]n1)c1ccncc1 | 14.6
Cc1onc(-c2c(F)cccc2Cl)c1C(=O)NC1CC1 | -0.826
O=C(N/N=C/c1cnc2ccccc2n1)c1cccc(F)c1 | 2.3
Cc1ccc(-c2csc(NC(=O)c3ccno3)n2)cc1 | 25
O=C(NCc1n[nH]c(=S)n1-c1ccc(Br)cc1)c1ccc(S(=O)(=O)N2CCCCC2)cc1 | 14.1
Clc1ncccc1OCc1ccccc1 | 4.98
O=S(=O)(NCc1cccs1)c1cccc2cccnc12 | -9.96
O=C(O)CN1C(=O)/C(=C\c2cc(Br)ccc2OCc2ccc([N+](=O)[O-])cc2)SC1=S | 11
CCc1ccc(S(=O)(=O)c2cn(C)c3cc(OC)c(OC)cc3c2=O)cc1 | 4.22
CCn1nc(C(=O)OCC(=O)N(CC(C)C)c2c(N)n(Cc3ccccc3)c(=O)[nH]c2=O)c2ccccc2c1=O | 14.2
CC(C)COC(=O)N1CCN(S(=O)(=O)c2ccc3c(c2)CCC3)CC1 | 13.3
Cc1nnc2sc(SCc3ccccc3)nn2c1=O | 16.6
O=C(NCCC1=CCCCC1)C1CCC(CNc2nc(=S)[nH]c3ccccc23)CC1 (stereo not shown) | 11.9
O=C(Nc1sc2c(c1C(=O)O)CCCC2)c1ccccc1Cl | 9.19
COc1ccc(CC(=O)Nc2ccc(-c3noc(-c4cccc(OC)c4)n3)cc2)cc1 | 0.154
N#CNC(=Nc1cccc(F)c1)SCc1ccccc1F | 5.48
O=C(O)CSc1nc(-c2cccs2)cc(C(F)(F)F)n1 | 16.9
COc1c(N2CCN[C@H](C)C2)c(F)cc2c(=O)c(C(=O)O)cn(C3CC3)c12 | 13.5
c1ccc(CNCc2ccc3c(c2)OCO3)nc1 | 11
O=C(NCCOc1ccc(Cl)cc1)c1ccc2ccccc2n1 | 7.95
CCc1ccc(-n2cnc3cc(C(=O)NCC(OC)OC)ccc32)cc1 | -2.54
COn1c(=O)c(-c2ccccc2)[n+]([O-])c2ccccc21 | 11
CCOC(=O)NNC(=O)c1ccc(Cl)cc1 | 1.99
Fc1ccc(/C=N/Nc2nc(-c3cccnc3)nc3ccccc23)cc1 | -0.464
